The results in this text go back to PubChem BioAssay AID488969 (Vanderbilt High Throughput Screening Facility, 2010).

Each structure is given as a SMILES string. Over roughly 110,000 compounds, “z-score” has its median near -0.1; the highest 2% begin near 2. The list shows a part of the results. The source made the active and inactive calls.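 The calls were made as follows: active = z-score in the third read window above 3 or below -3; inactive = the rest.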

For this experiment, the target named is Metabotropic glutamate receptor 8 (Rattus norvegicus) (UniProt P70579). The experiment in a line: mGluR8 Gi/Go-coupled signaling modulation – cell-based, rat, thallium flux, HTS, primary screen (AID 488969). Conditions: HEK293 rat mGluR8, GIRK (G protein-gated inwardly rectifying potassium channel) thallium flux, FluoZin2; at 10 µM; stronger effect = higher value; submaximal glutamate (EC20) added with thallium.
UniProt P70579, sequence (P70579 whole entry, looked up): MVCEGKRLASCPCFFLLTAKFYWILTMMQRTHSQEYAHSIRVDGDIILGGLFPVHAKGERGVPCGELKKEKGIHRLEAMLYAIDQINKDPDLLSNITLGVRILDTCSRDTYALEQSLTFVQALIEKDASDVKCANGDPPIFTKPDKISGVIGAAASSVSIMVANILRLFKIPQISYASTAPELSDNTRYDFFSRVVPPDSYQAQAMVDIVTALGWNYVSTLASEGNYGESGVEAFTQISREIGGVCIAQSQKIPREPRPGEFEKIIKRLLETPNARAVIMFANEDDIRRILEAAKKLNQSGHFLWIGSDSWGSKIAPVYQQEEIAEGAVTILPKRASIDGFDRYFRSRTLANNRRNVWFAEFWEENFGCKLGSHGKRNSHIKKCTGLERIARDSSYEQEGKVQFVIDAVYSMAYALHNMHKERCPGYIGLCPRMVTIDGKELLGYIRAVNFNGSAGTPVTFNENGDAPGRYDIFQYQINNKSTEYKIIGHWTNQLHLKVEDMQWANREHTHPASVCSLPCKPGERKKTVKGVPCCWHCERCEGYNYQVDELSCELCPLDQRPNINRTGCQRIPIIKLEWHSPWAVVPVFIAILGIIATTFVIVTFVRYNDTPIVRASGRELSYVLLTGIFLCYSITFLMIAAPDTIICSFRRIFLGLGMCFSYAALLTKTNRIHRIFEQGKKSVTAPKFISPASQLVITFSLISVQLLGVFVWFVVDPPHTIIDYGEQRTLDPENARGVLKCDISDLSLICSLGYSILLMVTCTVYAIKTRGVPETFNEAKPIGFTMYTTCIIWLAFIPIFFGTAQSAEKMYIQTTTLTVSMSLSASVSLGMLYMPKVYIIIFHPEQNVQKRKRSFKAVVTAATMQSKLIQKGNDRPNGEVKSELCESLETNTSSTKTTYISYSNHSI
Regarding `Cc1ccc2c(c1)c1ncn(CCC3=CCCCC3)c(=O)c1n2C`, the z-score was -0.0353.
Consider `COc1cc(-c2nnc(SC(C)C(=O)Nc3c(C)n(C)n(-c4ccccc4)c3=O)o2)cc(OC)c1OC` (stereo unspecified), for which the z-score is -0.144.
The figure for `COc1cccc(N(C(=O)Cn2nnc(-c3cccs3)n2)C(C(=O)NC2CCCCC2)c2ccncc2)c1` (stereo unspecified) is 0.235; for `Cc1noc(C)c1CSCC(=O)N1CCN(c2ccc(F)cc2)CC1` it is 0.94.
`Cc1cc(C)n2[nH]c(=O)c(N=Nc3cccc(Cl)c3)c2n1`: the z-score worked out at 0.381.
Consider `O=c1[nH]c2ccc(NC(=S)Nc3ccccc3Cl)cc2[nH]1`, for which the z-score is -0.108.
Turning to `C=CCOc1ccc2ccccc2c1CNc1ncn[nH]1`, the z-score is -0.514.
Molecule `O=C(Cc1ccc(Cl)cc1)Nc1ccc(N2CCN(C(=O)c3ccco3)CC2)cc1` yielded a z-score of 0.107.
With `CCCOc1ccc(CN(CCO)CCO)cc1[N+](=O)[O-]`, the z-score was -0.272.
In the case of `CCOC(=O)c1c(C)[nH]c(C(=O)CSc2nnc(-c3cccs3)n2Cc2ccccc2)c1C`, the z-score was -0.0745.
Regarding `C/C(=N\NC(=O)COc1ccc(C(C)(C)C)cc1)c1ccc(-n2ccnc2)cc1`, the z-score worked out at 0.123.
For `COc1ccc(C2CC(c3cccs3)=Nc3ccccc3S2)cc1OC` (stereo unspecified), the z-score turned out to be 0.0427.
For the molecule `CCO/C(C)=N/n1c2nc3ccccc3nc2c2c(=O)n(CC(C)C)c(C)nc21`, the z-score was -0.194.
For the molecule `O=C(Nc1ccc2oc(-c3ccc4ccccc4c3)nc2c1)c1cccs1`, the z-score was -0.186.
For the molecule `O=C(N/N=C/c1ccc(-c2ccc(S(=O)(=O)Nc3ncccn3)cc2)o1)c1cc2ccccc2cc1O`, the z-score is -0.469.
With `CC(C)c1ccc(NS(=O)(=O)c2cn(C)c(=O)n(C)c2=O)cc1`, the z-score was -0.372.
The figure for `CCOCc1nnc(NC(=O)CCc2ccccc2)s1` is 0.507.
`O=C(COc1ccc(Cl)cc1)N1CCCCC1` showed a z-score of 1.88.
For the molecule `CCOc1ccc(C2C=C(c3ccccc3)Nc3nnnn32)cc1` (stereo unspecified), the z-score was -0.108.
Molecule `c1ccc(-n2ncc3c(N4CCC5(CC4)OCCO5)ncnc32)cc1` came in with a z-score of 0.0111.
Consider `CC(C)NCCCOc1ccc(Cl)cc1Br`, for which the z-score is 0.892.
In the case of `COC(=O)c1cc(CNC(=O)c2cccc(Cl)c2Cl)ccc1OC`, the z-score is -0.263.
The same measure for `Cc1ccc(NC(=O)Cc2csc(-c3ccccc3)n2)cc1F`: 0.0327; for `CCOc1ccc(C(C)NC(=O)Nc2ccccc2C(=O)OC)cc1` (stereo unspecified): -1.3; for `CC(C)c1onc(C(=O)NCc2ccc(Cl)cc2)c1[N+](=O)[O-]`: -0.0253.
In turn, `CCOC(=O)C1CCN(C(=O)CS(=O)Cc2nc(-c3ccc(C)cc3)oc2C)CC1` (stereo unspecified) registered a z-score of 0.334.
As for `Cc1ccc(-c2nnn(CC(=O)N(CC(=O)NC3CCCCC3)c3ccc(F)c(Cl)c3)n2)o1`, the z-score turned out to be 0.293.
Consider `CN=C1c2cc3c(Br)c(OC)ccc3n2CCN1C`, for which the z-score came to 0.218.
Molecule `Cc1ccc(N(CC(=O)N/N=C/c2cccs2)S(C)(=O)=O)cc1` yielded a z-score of 0.245.
With `Cc1sc2ncnc(OCC(=O)N3CCN(S(=O)(=O)c4ccccc4)CC3)c2c1C`, the z-score worked out at 0.459.
The same measure for `CCOC(=O)c1sc2cc([N+](=O)[O-])cc(SCCO)c2c1N`: -0.16.
Take `Cc1cc(/N=C/N(C)C)on1`: the z-score is -0.0351.
Regarding `Fc1ccc(NC(=S)N2N=CCC2c2ccccc2)cc1` (stereo unspecified), the z-score is -0.117.
On to `O=C(COc1ccc(C(=O)c2ccccc2)cc1)NC1CCCCC1`, for which the z-score was -0.0497.
The same measure for `COc1ccc(N2C(=O)/C(=C3/C=CC=CN3C)SC2=S)cc1`: 0.0179; for `CCc1ccc(Cn2nnc(C(=O)Nc3cccc(C)c3)c2N)cc1`: 0.514.
Consider `CCCNC(=O)COc1ccccc1[N+](=O)[O-]`, for which the z-score was -0.112.
The figure for `COc1ccc(C(=O)NCC(=O)OCC(=O)N2CC(C)CC(C)C2)cc1` (stereo unspecified) is 0.156; for `COc1ccc(/C=N/NS(=O)(=O)c2ccccc2)cc1OS(=O)(=O)c1ccccc1` it is -0.712.
With `COc1ccc(-c2nnc(SCc3nnc(-c4cccs4)o3)n2CC2CCCO2)cc1` (stereo unspecified), the z-score was -0.126.
The molecule `Cc1cc(C)c2cccc(NC(=S)NC(=O)c3ccccc3)c2n1` yielded a z-score of 0.2.
The figure for `Cc1ccc(N2C(=O)C(Cl)=C(NCc3ccccc3)C2=O)c(C)c1` is 0.139.
The same measure for `COc1ccc(/C=N/N=C2/NC(=O)C(CC(=O)O)S2)cc1OCc1ccc(Cl)cc1Cl` (stereo unspecified): -0.123.
The figure for `Cc1ccc(-n2cccc2/C=C2/C(=N)N3C(=NC2=O)SN=C3S(C)(=O)=O)cc1Cl` is 0.702; for `O=C(NCc1ccc2c(c1)OCO2)c1ccc(CS(=O)(=O)Cc2cccc(Cl)c2)o1` it is -0.218.
Take `CCCCOC(=O)Nc1sc2nc(C)cc(C)c2c1-n1cccc1`: the z-score was -0.237.
Regarding `CC1CC(C)CN(c2ccc([N+](=O)[O-])cc2-c2nn[nH]n2)C1` (stereo unspecified), the z-score was -0.258.
Turning to `Cc1cc(C)cc(NC(=S)NCCCO)c1`, the z-score is -0.119.
In the case of `O=C(CSc1nnc(-c2ccccc2Cl)n1Cc1ccco1)Nc1ccc2c(c1)OCCO2`, the z-score was -0.435.
Turning to `CN(C)c1nc(Oc2ccc(=O)[nH]n2)nc(N2CCOCC2)n1`, the z-score is -0.115.
The same measure for `CCOc1cccc(OCCCCn2ccnc2)c1`: -0.196.
`Cc1ccc(CCNC(=O)C2CCCN(S(=O)(=O)c3cccs3)C2)cc1` (stereo unspecified): the z-score is -0.0308.
For `O=C(CNc1ccccc1)N/N=C/c1c[nH]c2ccccc12`, the z-score turned out to be 0.178.
`Cc1ccccc1-n1c(=O)c2ccccc2n2nnnc12` showed a z-score of 0.0179.
With `COC(=O)CC1(c2cccc3ccccc23)C(=O)c2ccccc2C1=O`, the z-score is -0.561.
Regarding `O=C(NCCCc1ccccc1)c1cccs1`, the z-score is -0.216.
Turning to `Cc1nn(S(=O)(=O)N(C)C)c(C)c1CN1C(=O)c2ccccc2C1=O`, the z-score was 1.76.
Take `O=C1c2cccnc2C(O)N1Cc1ccc(F)cc1` (stereo unspecified): the z-score was 0.13.
The same measure for `COc1cc(SC)ccc1C(=O)Nc1ccc2c(c1)CCN2S(C)(=O)=O`: -0.318; for `Cc1ccc(S(=O)(=O)N2CCC(C(=O)N3CCC[C@H]3C(=O)NCc3ccccc3)CC2)cc1`: -0.265; for `CCOc1ccc(NS(=O)(=O)c2ccc(OC)c(C)c2)cc1`: 0.961.
`COc1cc(OC)c(C(=O)Nc2ccc(N(C)C)cc2)cc1OC`: the z-score was -0.495.
The same measure for `CC1(C)Cc2c(cnn2-c2ccccc2)-c2c1c1ccccc1n2CC(O)CCl` (stereo unspecified): -0.108.
The same measure for `CCn1c(COc2ccc(=O)n(-c3ccccc3)n2)nnc1SCc1ccccc1C`: -0.428.
The same measure for `CCC(Sc1nc2cc3c(cc2c(=O)n1Cc1ccco1)OCO3)C(=O)Nc1ccccc1OC` (stereo unspecified): -1.31; for `CCc1ccc(C(=O)NCc2ccc(Cl)cc2Cl)cc1`: -0.761.
`O=C(NC1CCCCC1)c1ccc(Cn2cc(Cl)cn2)cc1` showed a z-score of 0.136.
For the molecule `O=C(Nc1ccc2c(c1)OCCO2)c1ccc(Cl)c([N+](=O)[O-])c1`, the z-score is -0.228.
The same measure for `O=S(=O)(Nc1cccc2ccccc12)N1CCCC1`: -0.224.
Consider `COc1ccccc1N1CCN(c2nc(N)c(C#N)c(CC#N)c2C#N)CC1`, for which the z-score was determined as 0.568.
For the molecule `COc1ccc(CNc2nc3c(c(=O)[nH]c(=O)n3C)n2Cc2ccccc2C)cc1`, the z-score is -0.359.
`O=C(Nc1ccc2c(c1)CCC2)C1CCCN(c2ncccn2)C1` (stereo unspecified): the z-score came out at 1.78.
The figure for `CCOC(=O)C1=C(C)N=C2SC(C(=O)OC)=CC(=O)N2C1c1cc(OC)c(OC)c(OC)c1` (stereo unspecified) is -0.014; for `Cc1nc2c(ccc3c2ccc2nc(C)sc23)s1` it is 1.17; for `CN(C)c1ccc(/C=C/C(=O)c2ccc3c(c2)OCCO3)cc1[N+](=O)[O-]` it is -0.26.
The figure for `Cc1cc(Cl)ccc1Oc1ncnc2oc(-c3ccccc3)cc12` is 0.0445; for `Cc1nnc(NC(=O)C2CCN(c3nnnn3-c3ccccc3)CC2)s1` it is -0.0201.
Molecule `Oc1ccc2ccccc2c1/C=N/c1nccs1` displayed a z-score of 0.277.
The figure for `COc1ccc(C(=S)N2CCCC2)cc1OC` is -0.422.
Turning to `O=C(CCCSc1nnnn1-c1ccccc1)c1ccc(F)cc1`, the z-score was -0.258.
With `O=c1c2c3c(sc2nc2n1CCCCC2)CCCCC3`, the z-score is active: 8.38.
As to `C=CCN(CC=C)S(=O)(=O)c1ccc(NC(=S)NC(=O)Cc2ccc(OC)cc2)cc1`, the z-score was -0.106.
The figure for `COc1ccc(OC)c(S(=O)(=O)Nc2ccccc2SC)c1` is 1.19; for `Cc1cc(C)c2c(c1)NC(c1cc3c(cc1Br)OCO3)C1CC=CC21` (stereo unspecified) it is 1.04.
The same measure for `C=CCn1c(SCc2cc(=O)n3ccsc3n2)nnc1C1CCCCC1`: -0.372.
Regarding `CC(CC(=O)NCc1cccnc1)c1ccccc1` (stereo unspecified), the z-score worked out at 1.06.
For `Cc1cc(C(F)F)n2ncc(C(=O)NCCc3ccccc3Cl)c2n1`, the z-score was -0.487.
For the molecule `C/C(=N\OCC(=O)Nc1cc(C)cc(C)c1)c1ccc2c(c1)OCCO2`, the z-score is 0.235.
`Cc1c(Cl)cccc1NC(=O)CNc1ccccc1F`: the z-score was -0.398.
For `O=C(C(Sc1ccccc1)c1ccccc1)N1CCOCC1` (stereo unspecified), the z-score was -0.0319.
The figure for `Cc1ccc2c(c1)-c1c(ssc1=S)C(C)(C)N2C(=O)CSC1=NCCS1` is 0.0366; for `Cn1c(=O)oc2cc(S(=O)(=O)N3CCC4(CC3)OCCO4)ccc21` it is 0.716.
The figure for `COc1ccc(C(=O)N2c3ccc(F)cc3CCC2C)cc1OC` (stereo unspecified) is -0.19; for `CCOC(=O)C1=C(C)N=C2SC(C(=O)OC)=CC(=O)N2C1c1ccc(F)cc1` (stereo unspecified) it is -0.218; for `CC(CSc1nc2ccccc2s1)Cn1c(N2CCCC2)nc2c1c(=O)[nH]c(=O)n2C` (stereo unspecified) it is 0.277.
In the case of `COC(=O)c1ccc(C)c(NC(=O)CN2C(=O)c3ccccc3S2(=O)=O)c1`, the z-score was -1.77.
The molecule `CCCn1c(NCc2cc(OC)ccc2OC)nc2ccccc21` registered a z-score of 0.137.
Turning to `COC(=O)c1ccccc1N(Cc1ccccc1)S(C)(=O)=O`, the z-score is -0.00256.
As to `O=C(COc1ccc2oc3c(c2c1)CCCC3)Nc1ccccn1`, the z-score was -0.0926.
On to `CCN(CC)S(=O)(=O)c1ccc2oc(C(=O)O)c(C)c2c1`, for which the z-score was -0.472.
`COc1ccc(C(C#N)N2CCCCC2)cc1OC` (stereo unspecified) displayed a z-score of 0.979.
For the molecule `O=C1NC2(CCCCCC2)Cc2ccccc21`, the z-score is -0.131.
Regarding `COc1ccc(-c2ncccc2O)cc1`, the z-score was -0.124.
The molecule `COC(=O)c1ccc(Oc2nc(NC(C)C)nc(N(C)C)n2)cc1` registered a z-score of 0.0146.
Regarding `COc1ccc(Br)c(/C=N/NC(=O)COc2ccc(-c3ccccc3)cc2)c1`, the z-score is -0.607.
Regarding `COc1cccc(/C=C(/C#N)c2ccc(F)cc2)c1OCc1cccc(C(=O)O)c1`, the z-score is -0.924.
As to `Cc1ccc(NC(=O)c2cc(N(C)C)ccc2[P+](=O)O)cc1`, the z-score was -0.24.
As for `CNC(=O)COc1ccccc1C(=O)Nc1ccc2c(c1)oc1ccccc12`, the z-score was -0.0282.
Regarding `COc1ccc(-c2cn3c(C)c(C(=O)NCc4ccc5c(c4)OCO5)sc3n2)cc1`, the z-score is -0.267.
The same measure for `Cn1c(=O)c2c(nc(Sc3n[nH]c(N)n3)n2Cc2ccccc2Cl)n(C)c1=O`: -0.703.
`COc1ccc(C2(C(=O)Nc3c(C)n(C)n(-c4ccccc4)c3=O)CCCC2)cc1OC` returned a z-score of 0.225.
